Numbering of substitutions follows the chain as printed. Numbers in names are those of the source. These are yes or no findings as the source states them, for the method shown. Some binding calls cover weakened binding; strength is not graded here.
T1: Trx-RssB_(R117A) (E. coli) (UniProt P0AEV1)
T1 sequence: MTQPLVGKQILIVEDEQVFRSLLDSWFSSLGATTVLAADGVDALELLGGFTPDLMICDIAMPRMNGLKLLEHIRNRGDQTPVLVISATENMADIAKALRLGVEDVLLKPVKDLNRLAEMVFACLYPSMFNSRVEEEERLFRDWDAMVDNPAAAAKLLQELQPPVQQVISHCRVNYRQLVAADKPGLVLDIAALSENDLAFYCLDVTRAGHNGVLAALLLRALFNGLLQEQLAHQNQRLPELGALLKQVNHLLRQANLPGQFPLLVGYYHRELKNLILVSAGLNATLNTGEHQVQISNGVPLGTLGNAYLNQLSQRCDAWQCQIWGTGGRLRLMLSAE

Amino acid sequences for entries named in this document (tags omitted).
UniProt P13445: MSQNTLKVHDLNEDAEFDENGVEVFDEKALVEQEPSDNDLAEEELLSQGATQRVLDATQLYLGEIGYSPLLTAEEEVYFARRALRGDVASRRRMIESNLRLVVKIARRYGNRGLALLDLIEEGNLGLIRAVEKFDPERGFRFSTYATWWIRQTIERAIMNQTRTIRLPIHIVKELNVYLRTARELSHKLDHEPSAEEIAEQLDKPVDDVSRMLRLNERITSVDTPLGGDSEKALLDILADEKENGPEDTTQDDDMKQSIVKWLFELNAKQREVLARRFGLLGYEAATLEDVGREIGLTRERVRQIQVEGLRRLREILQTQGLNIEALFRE

T2: Trx-RssB_(RE/AA) (E. coli) (UniProt P0AEV1)
T2 sequence: T1 sequence with E118A

T3: Trx-H6-RssBC (E. coli) (UniProt P0AEV1)
T3 sequence: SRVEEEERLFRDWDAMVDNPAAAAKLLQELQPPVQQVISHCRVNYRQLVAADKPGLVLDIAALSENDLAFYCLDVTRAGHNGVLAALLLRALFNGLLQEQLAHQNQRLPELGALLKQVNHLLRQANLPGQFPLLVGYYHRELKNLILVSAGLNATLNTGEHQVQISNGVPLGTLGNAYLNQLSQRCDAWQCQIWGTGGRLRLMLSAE

T4: Trx-H6-RssBN (E. coli) (UniProt P0AEV1)
T4 sequence: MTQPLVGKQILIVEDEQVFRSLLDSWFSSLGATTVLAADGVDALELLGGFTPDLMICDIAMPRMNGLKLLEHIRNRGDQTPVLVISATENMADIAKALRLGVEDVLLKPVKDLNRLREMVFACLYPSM

T5: Trx-H6-RssB, wild type (E. coli) (UniProt P0AEV1)
T5 sequence: T1 sequence with A117R

B1: Trx-RssB_(R117A) (protein, UniProt P0AEV1 1-337)
chain: T1 sequence

Columns and labels:
[1] = molecular target: T1, Trx-RssB_(R117A) (E. coli); assay: pull-down; Trx-RssB (wild type or mutant) immobilised on Ni-NTA agarose, untagged σS added, in the absence of AcP (Figure 6a,b); both purified
[2] = molecular target: T2, Trx-RssB_(RE/AA) (E. coli); assay: as above
Trx-H6-RssBC (E. coli) = molecular target: T3, Trx-H6-RssBC (E. coli); assay: pull-down; Trx-H6-RssB (wild type, RssBN or RssBC) immobilised on Ni-NTA agarose, untagged σS added; 25 μg proteins, Hepes-KOH pH 7.5, 100 mM KOAc; AcP not stated (Figure 5c); both purified
Trx-H6-RssBN (E. coli) = molecular target: T4, Trx-H6-RssBN (E. coli); assay: as above
[3] = molecular target: T5, Trx-H6-RssB, wild type (E. coli); assay: as above
[4] = molecular target: T1, Trx-RssB_(R117A) (E. coli); assay: SEC; SEC (Superdex 200 16/600) in line with synchrotron SAXS; Trx-RssB R117A (20 nmol), σS (35 nmol) and the complex at 1:1 molar ratio (12.5–15 nmol), 10 mM AcP, 20 mM Tris-HCl pH 7.5, 140 mM NaCl; both purified

Row | Molecule | binding [1] | binding [2] | binding (Trx-H6-RssBC (E. coli)) | binding (Trx-H6-RssBN (E. coli)) | binding [3] | binding [4]
1 | σ^S (SigmaS), untagged, wild type (from UniProt P13445 1-330) | no binding (condition: in the absence of AcP) | no binding (condition: in the absence of AcP) | binds | binds weakly | binds | 
2 | B1 |  |  |  |  |  | no binding

— paper PMC7226468, “Insight into the RssB-Mediated Recognition and Delivery of σ^s to the AAA+ Protease, ClpXP” (Biomolecules, 2020)
